The text below walks through data of the supplement of paper PMC3334620.

Over roughly 33,000 sequences, “E-score (-0.5 to 0.5)” has its median near -0.021; the highest 2% begin near 0.32. This is one part of the list.

The target in this experiment is T1, Zap1 (UniProt P47043).
T1 sequence: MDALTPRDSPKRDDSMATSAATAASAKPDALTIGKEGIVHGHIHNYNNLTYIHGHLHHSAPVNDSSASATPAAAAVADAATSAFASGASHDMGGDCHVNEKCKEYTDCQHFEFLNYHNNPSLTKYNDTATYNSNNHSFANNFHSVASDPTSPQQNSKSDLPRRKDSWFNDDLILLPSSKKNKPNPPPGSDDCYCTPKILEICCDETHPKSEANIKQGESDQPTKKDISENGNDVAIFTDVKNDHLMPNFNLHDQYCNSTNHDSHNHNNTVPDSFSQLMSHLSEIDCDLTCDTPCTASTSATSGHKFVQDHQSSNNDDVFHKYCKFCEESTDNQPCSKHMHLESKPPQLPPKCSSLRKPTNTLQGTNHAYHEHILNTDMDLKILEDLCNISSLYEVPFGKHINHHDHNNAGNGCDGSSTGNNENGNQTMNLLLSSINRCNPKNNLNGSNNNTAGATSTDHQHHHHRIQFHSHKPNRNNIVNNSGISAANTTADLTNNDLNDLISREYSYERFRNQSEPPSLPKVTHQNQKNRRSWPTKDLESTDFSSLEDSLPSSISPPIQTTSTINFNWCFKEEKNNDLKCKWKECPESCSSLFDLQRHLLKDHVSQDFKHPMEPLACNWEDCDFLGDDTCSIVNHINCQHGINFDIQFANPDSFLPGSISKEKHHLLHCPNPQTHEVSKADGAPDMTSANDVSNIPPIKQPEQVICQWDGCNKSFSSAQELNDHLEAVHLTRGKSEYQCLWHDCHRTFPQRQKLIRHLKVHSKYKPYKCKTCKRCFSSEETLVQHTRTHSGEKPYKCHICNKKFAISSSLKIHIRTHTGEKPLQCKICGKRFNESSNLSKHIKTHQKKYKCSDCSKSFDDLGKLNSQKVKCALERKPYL
Description: PBM E-score (8-mer binding enrichment) (E-score (-0.5 to 0.5)); higher = stronger / more preferred TF binding; most listed sequences are background and not binding sites. The settings on record: protein concentration: 200 nM; construct: GST-full length. An outline of the steps: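 GST-tagged yeast TFs (full-length or DNA-binding domain) were made by PURExpress in vitro transcription/translation and applied at about 100-200 nM to universal all-10-mer Agilent arrays. The arrays were made double-stranded by primer extension, on fresh or once-stripped slides. Bound protein was detected with fluorescent anti-GST, and scans were normalised with masliner. Each ungapped eight-base word, pooled with its reverse complement, received an E-score (modified Wilcoxon-Mann-Whitney statistic) from the Universal PBM Analysis Suite.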
CTGCCGGA: the “PBM E-score” value was -0.107. With GCAGGCTA the figure was -0.25; with ACGTGGGC, -0.382; with CTACCTAC, 0.0617. For the sequence CACAGGTA, the “PBM E-score” value came to 0.233. On to GGGGTCAC, for which the “PBM E-score” value is 0.428. Turning to AACTACTT, the “PBM E-score” value is 0.0669. Regarding CAAGCGGG, the “PBM E-score” value is -0.157.

Take AGAAATTA: the “PBM E-score” value amounted to 0.198.

In the case of CAACGAAC, the “PBM E-score” value is 0.0604. With AGAGGAGA the figure was -0.268; with CTGCCGGC, -0.272; with GTGGAACA, -0.156. With GAAACAGA, the “PBM E-score” value worked out at 0.0671. Then TACCCACA, with 0.219; and TCTCCCCA, with -0.0334. Then GGCCGGTA, with 0.154; and TAAGGGTA, with 0.433.

As to ATGCCGGA, the “PBM E-score” value was -0.189. CAATAACC: the “PBM E-score” value is 0.468. With CCTTATAG, the “PBM E-score” value was found to be 0.262. Then ACCCTTCA, with 0.341; and TAGATTGA, with 0.057.

For the sequence CCATATCG, the “PBM E-score” value is -0.0983. Then ACTAAGCC, with 0.113; and TCGTGACA, with -0.0645; and CCCCCGGG, with 0.167. Then AGCACGGG, with -0.0256; and CATACCTA, with 0.129. With CAATAGAG, the “PBM E-score” value is -0.206. With ACGTGCCG the figure was -0.162; with GGAGCAGA, -0.229. Then AGAAGGTC, with 0.237. With GCCGAGGA the figure was -0.104. With GAGGTGGA, the “PBM E-score” value is -0.172. With ACCGAAGG the figure was 0.0422. With CGCGTAGA the figure was 0.166; with AGAAGTAT, 0.0734; with TACTAAGA, 0.107. Then CGACAGAG, with -0.178; and AAGACTGG, with -0.239; and CGAGTCCG, with -0.044. Turning to CAGGGGTC, the “PBM E-score” value is 0.321.

In the case of CCTCGTCG, the “PBM E-score” value was -0.00814. With TGGAGCCA the figure was -0.239; with AGATAGGC, -0.259. Then CTAGTTAA, with 0.144; and CTGCGGAC, with 0.0062; and ACTGCAGA, with -0.0714. With AACTCGGC the figure was 0.0542. With GGGTCCAC, the “PBM E-score” value was -0.0924. Then ACCACAGC, with -0.0509; and CTGGAAAA, with 0.151. Then CTTCAGGA, with 0.107. With AGTCAAAA the figure was 0.0613. Take CCAGCATA: the “PBM E-score” value is -0.197. Then ACACTTCA, with -0.154. Turning to CCTGATAG, the “PBM E-score” value is -0.219. Then ATCGGTCC, with -0.234; and AGGCTTGC, with -0.326; and GTCTCGGA, with -0.0133. With AGAGCTCG the figure was -0.039; with CCCCCCTA, -0.413; with CGCATATA, -0.056.

For GATATTCC, the “PBM E-score” value is 0.0278. GGCGCGTA: the “PBM E-score” value is -0.119. With TATGCACA, the “PBM E-score” value amounted to 0.0476.

For the sequence TGGGATAA, the “PBM E-score” value is -0.111. With ACTTTACC, the “PBM E-score” value is 0.06.

As for TCCTAGGA, the “PBM E-score” value stood at 0.0315.

Regarding GAGTCGAA, the “PBM E-score” value was determined as 0.0323. With ATGATTCC the figure was 0.0354; with CTTGACCC, 0.311; with AGATCAGG, -0.0381. For the sequence GTTCTATA, the “PBM E-score” value stood at 0.142. Then CTTCATGC, with -0.146. With AGCGTCAC, the “PBM E-score” value was -0.21. Then AATGACAT, with -0.0822; and TAAAGTAA, with 0.00117. With ACCTCAAG the figure was 0.251; with CATTGAAC, 0.00729. Then ACATCGGT, with -0.00075; and AAGAGCAA, with -0.126; and CCCATAGA, with 0.102. For GTGCGCAC, the “PBM E-score” value was determined as 0.311. With CGCTAAAA the figure was 0.0123; with ACCGCCAG, 0.0908; with GAAAGTAA, 0.0294. As for AAGTGACG, the “PBM E-score” value was -0.021. Regarding CCGGATAG, the “PBM E-score” value is -0.0246. With ACCAAAAG the figure was 0.27; with GGGGCATA, -0.156; with AATGCAGC, -0.344. Then ACCGAGTG, with -0.0921; and TCATAAGA, with 0.00189.

In the case of TACATCCA, the “PBM E-score” value worked out at 0.133. With CGCGGTAC the figure was 0.305.

Regarding AGGCTGCG, the “PBM E-score” value is -0.0962. Then CCTGGGCC, with 0.0947; and TAATTTCA, with 0.3. With CCAGTAAA the figure was 0.129; with TCATCCCA, 0.073. Then AGTATTCA, with 0.154; and GACTCTAA, with -0.0305. As for GTGGAAGA, the “PBM E-score” value was -0.0706. Then CGACCGGA, with -0.192; and CCTTTAAG, with 0.237; and ACCGGCGG, with 0.0545. For TATTGAGA, the “PBM E-score” value was 0.159. As to CGGCCGAC, the “PBM E-score” value came out at 0.0338.
